Source: the supplement of paper PMC3334620
Over roughly 33,000 sequences, “E-score (-0.5 to 0.5)” has its median near -0.054; the highest 2% begin near 0.35. The list shows a part of the results.

These sequences were tested against T1, Stb5 (UniProt P38699) (assay: PBM E-score (8-mer binding enrichment) (E-score (-0.5 to 0.5)); higher = stronger / more preferred TF binding; most listed sequences are background and not binding sites). Settings: protein concentration: 200 nM; construct: GST-full length.
T1 sequence: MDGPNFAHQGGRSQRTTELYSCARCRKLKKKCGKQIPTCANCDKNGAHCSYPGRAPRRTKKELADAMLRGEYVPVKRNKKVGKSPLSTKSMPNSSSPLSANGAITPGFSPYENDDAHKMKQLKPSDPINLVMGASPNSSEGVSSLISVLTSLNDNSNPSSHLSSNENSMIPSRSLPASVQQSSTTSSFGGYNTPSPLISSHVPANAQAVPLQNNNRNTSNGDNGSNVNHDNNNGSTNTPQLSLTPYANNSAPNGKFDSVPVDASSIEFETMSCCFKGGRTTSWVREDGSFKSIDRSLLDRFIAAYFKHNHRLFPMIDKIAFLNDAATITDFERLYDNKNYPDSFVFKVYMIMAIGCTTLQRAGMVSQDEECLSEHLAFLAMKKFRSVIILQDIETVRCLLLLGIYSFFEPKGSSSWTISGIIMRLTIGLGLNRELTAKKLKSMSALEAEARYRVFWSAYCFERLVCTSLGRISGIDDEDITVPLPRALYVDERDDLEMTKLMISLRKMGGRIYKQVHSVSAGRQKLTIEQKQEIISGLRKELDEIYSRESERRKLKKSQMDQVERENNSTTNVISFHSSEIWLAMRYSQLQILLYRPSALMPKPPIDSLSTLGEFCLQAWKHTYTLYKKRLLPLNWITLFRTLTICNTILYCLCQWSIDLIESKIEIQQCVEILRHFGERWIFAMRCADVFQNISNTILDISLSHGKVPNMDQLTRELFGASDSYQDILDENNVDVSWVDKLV
Procedure: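 Universal 'all 10-mer' protein binding microarrays (Agilent AMADID 015681) probed with GST-tagged S. cerevisiae TFs (full-length or DBD) made by in vitro transcription/translation (PURExpress), about 100-200 nM. Bound TF was detected with fluorescent anti-GST. Each ungapped 8-mer (which stands for itself and its reverse complement) is scored by the PBM enrichment score (E-score), a modified Wilcoxon-Mann-Whitney statistic from -0.5 to +0.5, computed with the Universal PBM Analysis Suite. Scale: above 0.35 generally sequence-specific binding.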

| Sequence | PBM E-score |
| --- | --- |
| CAAACTTC | -0.0467 |
| CCCTGGGC | -0.205 |
| TCGAGACA | -0.238 |
| CCGGGGCC | 0.202 |
| CCCCCCCC | -0.388 |
| AGTTTTCG | -0.0129 |
| ATACTTAG | -0.142 |
| GGCCTGCA | 0.0378 |
| GGGGCAAC | -0.114 |
| CCCTCATA | -0.151 |
| TACCACCA | 0.112 |
| ATTTCTGA | -0.0715 |
| GCATGGGC | -0.149 |
| CTAAACGC | 0.113 |
| AAGCCCCC | 0.00224 |
| ACCGTAAC | 0.182 |
| AGACTAAC | 0.00795 |
| GGGAGTTA | 0.146 |
| CGGACCAA | 0.376 |
| CGGGTCTC | 0.151 |
| AACCAGAT | -0.121 |
| GTTTCTGA | -0.0982 |
| TGCTCGAA | -0.119 |
| ATAGAATG | -0.135 |
| CGCGAGCA | 0.0328 |

| Sequence | PBM E-score |
| --- | --- |
| CCCTAAAC | 0.0771 |
| AGGGGCTA | -0.0747 |
| TCACGCAA | -0.0766 |
| CGTCACTC | 0.0223 |
| CGTGCCAA | -0.081 |
| GAGCTGTA | -0.121 |
| GGCGGCAC | 0.343 |
| CCCTGTTA | -0.0434 |
| AGTGGTGG | -0.255 |
| AAATAAAT | 0.169 |
| CATGTGCG | -0.0657 |
| TATAGATA | -0.114 |
| CTGGGTCA | -0.166 |
| ATTGTAAA | 0.132 |
| ATTCAACG | 0.0103 |
| ACCTATAC | -0.0291 |
| ATGGACTC | -0.103 |
| GATATGAC | 0.1 |
| GGACTCCC | -0.0915 |
| AAATACAG | -0.102 |
| AATGTGGT | -0.0348 |
| TAACAAGA | -0.0234 |
| AATAACCC | 0.256 |
| CGGACTCA | 0.411 |
| ATGCAGTG | -0.262 |

| Sequence | PBM E-score |
| --- | --- |
| AATTCGCT | 0.0277 |
| AGCGTGAG | -0.169 |
| AGGGCTTA | 0.12 |
| ACCTTCCA | -0.0713 |
| ACGACCTA | -0.145 |
| AGTCTACA | -0.19 |
| AGGGGGCG | -0.00816 |
| CAACTGTG | -0.157 |
| AGTTCAAC | -0.0908 |
| CATACGAC | -0.108 |
| CTCCAACA | -0.107 |
| ATACTCAA | -0.166 |
| CATTAGGC | -0.124 |
| CATGCCGA | 0.168 |
| CTCTATAC | 0.0661 |
| AGCGCTAA | 0.0869 |
| ACCGTTTA | 0.241 |
| AAGTTAAG | 0.0192 |
| ATTAGTGG | -0.0717 |
| TCTAGAAA | -0.071 |
| TAATACGA | -0.0227 |
| AGACCTAA | -0.0689 |
| CAATCCCC | 0.19 |
| ATTTAGAG | -0.138 |
| AAGCGTTA | -0.105 |

| Sequence | PBM E-score |
| --- | --- |
| CAATTTGC | -0.182 |
| GCCCTTCC | -0.176 |
| AGTGAGTC | -0.196 |
| ACCTCAGT | -0.273 |
| AGGGTCGA | -0.0825 |
| AGCAGTGA | -0.0161 |
| CCTCAAAG | -0.193 |
| ATGGTGGA | -0.209 |
| CCGTTTAG | 0.179 |
| AACTGTCT | -0.224 |
| ATATGCAG | -0.099 |
| GCTGGTCA | -0.189 |
| AGAGGTGC | -0.0802 |
| CTAGATGA | -0.118 |
| CAGGCACA | -0.271 |
| GTAATAAC | 0.0252 |
| GAGGTTTA | 0.101 |
| GTGCTGGA | -0.186 |
| ATGCCGGC | 0.301 |
| GCGACCGC | 0.206 |
| ACGCTAAC | 0.0108 |
| GCAAGATA | 0.0536 |
| CCTGTGGA | -0.356 |
| ACCCCGCG | 0.367 |
| CCCCCAAC | -0.145 |

| Sequence | PBM E-score |
| --- | --- |
| GTAGCAGA | -0.176 |
| AAGGAAGC | -0.149 |
| TAGAACCA | -0.175 |
| GACGCCAC | 0.00899 |
| ATCGGACC | 0.398 |
| TACCATGA | -0.264 |
| AGGGCCCG | 0.165 |
| GTCTTTCA | 0.133 |
| ACCAATCA | -0.173 |
| ACAGACAT | -0.0713 |
| ACGTTTGC | -0.198 |
| CCGTCATA | 0.264 |
| CAATTAGC | 0.00491 |
| ACACTTTA | -0.24 |
| CTGATAAG | -0.064 |
| ACTAACTC | 0.0164 |
| ACGTCGAT | -0.156 |
| CCCCCACA | -0.114 |
| CCACGCCC | 0.101 |
| ACTTGTCT | -0.198 |
| ATTCTCCA | -0.0892 |
| AGACGGGA | 0.202 |
| CTGCCGAC | 0.15 |
| CAACCTGG | -0.278 |
| CCCCGGAA | 0.0442 |

| Sequence | PBM E-score |
| --- | --- |
| ACATAAAA | 0.0923 |
| AAATCAGA | 0.038 |
| CCTACCCC | 0.138 |
| AACAGTGG | -0.0751 |
| ATCTTTCG | -0.135 |
| GATAGTAC | -0.074 |
| ACAATGAG | -0.13 |
| CCACGCTC | -0.191 |
| ATCGACAC | -0.358 |
| ACGGTGAC | 0.297 |
| CTTCACAA | -0.19 |
| GCGAAGTA | -0.132 |
| CACGGTGG | 0.0528 |
| ACCGGGGC | 0.359 |
| AAGCGGAC | 0.352 |
| CGAGAAAC | 0.0031 |
| ATCGGGAG | 0.148 |
| AACCGCTT | 0.076 |
| ATTCGCTG | -0.0736 |
| GACCGCGC | 0.246 |
| GAATTCGA | 0.0085 |
| CTTATGAC | -0.0229 |
| AGCATGTA | -0.21 |
| GCTGAGAA | -0.0927 |
| CGTTATTC | 0.05 |

| Sequence | PBM E-score |
| --- | --- |
| AGTGTTCC | -0.0844 |
| GGGGACCA | -0.0997 |
| CCATGCAC | 0.00841 |
| CACCGAGC | 0.307 |
| GGTATACC | 0.185 |
| ACTTTTCC | 0.111 |
| TGTTGCAA | 0.0817 |
| ATAGAGAG | -0.183 |
| TATGAGCA | -0.156 |
| GTGTTCAA | 0.0193 |
| GAGCCAGC | 0.00015 |
| ACCGAGGT | 0.0858 |
| CGAATAAC | 0.0917 |
| CCCCCGAC | 0.349 |
| CCTCACCG | -0.0129 |
| CTCTCTTA | -0.152 |
| CGAAGTTA | 0.0169 |
| AAAGCGGC | 0.253 |
| AGACGTGG | -0.117 |
| ACTTTAAA | 0.104 |
| AGTGCTCA | -0.155 |
| CGATTATA | 0.131 |
